Data from the supplement of paper PMC3334620.
Over roughly 33,000 sequences, “E-score (-0.5 to 0.5)” has its median near -0.043; the highest 2% begin near 0.37. The list shows a part of the results.

Target: T1, Upc2 (UniProt Q12151)
T1 sequence: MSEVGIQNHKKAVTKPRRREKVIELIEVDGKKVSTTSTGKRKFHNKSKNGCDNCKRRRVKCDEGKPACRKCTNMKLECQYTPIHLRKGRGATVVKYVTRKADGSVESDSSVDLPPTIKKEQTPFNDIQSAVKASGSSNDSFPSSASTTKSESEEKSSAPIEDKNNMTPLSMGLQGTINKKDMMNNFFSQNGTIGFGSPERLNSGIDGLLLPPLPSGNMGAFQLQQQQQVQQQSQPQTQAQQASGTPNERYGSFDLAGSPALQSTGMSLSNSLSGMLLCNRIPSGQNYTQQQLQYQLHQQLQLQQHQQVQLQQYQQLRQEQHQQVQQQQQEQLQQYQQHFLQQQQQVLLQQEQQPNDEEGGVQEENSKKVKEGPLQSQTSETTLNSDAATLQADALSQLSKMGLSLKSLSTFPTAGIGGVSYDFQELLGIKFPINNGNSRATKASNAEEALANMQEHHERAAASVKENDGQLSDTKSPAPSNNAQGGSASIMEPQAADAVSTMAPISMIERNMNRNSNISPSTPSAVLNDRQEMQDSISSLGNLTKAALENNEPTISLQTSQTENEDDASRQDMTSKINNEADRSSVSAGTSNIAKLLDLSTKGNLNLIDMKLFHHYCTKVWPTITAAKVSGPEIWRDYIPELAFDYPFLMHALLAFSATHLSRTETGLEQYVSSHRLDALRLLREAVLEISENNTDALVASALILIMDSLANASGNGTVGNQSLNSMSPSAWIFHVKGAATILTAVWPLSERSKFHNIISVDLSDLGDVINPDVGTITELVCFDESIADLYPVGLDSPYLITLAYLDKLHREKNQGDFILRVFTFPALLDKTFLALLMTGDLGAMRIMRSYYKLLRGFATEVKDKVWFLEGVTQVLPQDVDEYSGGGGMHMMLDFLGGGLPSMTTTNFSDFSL
Experiment: PBM E-score (8-mer binding enrichment) (E-score (-0.5 to 0.5)); higher = stronger / more preferred TF binding; most listed sequences are background and not binding sites
Details: protein concentration: 200 nM; construct: GST-full length
Summary of the method: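 Universal all-10-mer Agilent arrays, fresh or stripped once, were converted to double-stranded form by primer extension. GST-tagged yeast transcription factors from PURExpress in vitro transcription/translation, full-length or DNA-binding domain only, were applied at about 100-200 nM and detected with fluorescent anti-GST. After masliner normalisation, the Universal PBM Analysis Suite scored each ungapped eight-base word together with its reverse complement by E-score.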

Sequence	PBM E-score
AGCGCTTA	0.16
TAAATTAA	0.0422
CATCTCGG	0.0409
ATATGACG	-0.0482
ACCACAGA	-0.0741
AAATCGTC	0.14
AGAGCCAG	-0.238
CACCATTA	-0.0218
ACTGCTTA	-0.126
AGCCGCAT	-0.0414
CTCTAGAC	-0.0443
ACATACTA	0.00721
ATGAAAAG	-0.199
AACGCTTC	0.0315
AACCACCA	-0.101
CTAAAGAA	-0.0917
ACCGCGGG	0.0219
AAGATGGA	-0.212
GCTGCCCA	-0.0924
AGCGTTGG	-0.274
GCTAATCA	0.00342
GCGCTGGA	-0.261
TATTGCCA	-0.0387
ATTCGCTC	0.199
CGAAGTCA	0.0451

Sequence	PBM E-score
GAGCACTA	0.0918
ATCGCAAA	0.158
TACAATCA	0.0502
AAATGTAG	-0.168
ATTCGTAC	0.452
AAGAGATA	0.15
ACAGCTCC	-0.142
GATGTTCC	-0.0779
TACTCCAA	-0.0782
AACGAAGG	0.401
CTTCAGTC	-0.175
TCTTCGCA	0.109
ACGTCAAC	0.138
GATCGACA	-0.0894
CCATTTGA	-0.213
CGTGCTAA	-0.0577
AATCTTGT	-0.0994
GTCGCAGA	-0.00606
ACCCTCCC	-0.00421
AGTCTAGA	-0.24
TCCAAGGA	-0.0456
GATCAGGC	-0.216
ATTGAGTG	-0.104
CCGCGGAG	-0.066
CAGACATA	0.0243

Sequence	PBM E-score
CCTTCAGC	-0.241
GTCTTCAA	-0.174
ACTAGCGA	0.116
AAACGGCA	0.37
ATACATCA	0.0165
CGAGCTCG	0.329
GGCGTAGA	0.048
CTAACACC	-0.0508
AATTCGCA	0.115
GGGCTCAA	-0.0774
CAGAGGTA	0.0363
GGATCCAC	-0.119
GATGCCGC	-0.135
GACACTAC	0.0466
CTAGAATA	0.0873
ATACTCGC	0.249
GATCACGA	-0.00109
CGCGTAGC	0.184
CCCTACGG	-0.0948
CTGTACGA	0.488
AGTGTGAG	-0.163
CAAATCCA	-0.0755
CGCCACCG	0.0557
AAGGACTT	-0.248
AGCCTCAT	-0.229

Sequence	PBM E-score
ATCTCATC	-0.0324
CGAACCCA	0.131
AAACTCTC	0.0645
CATGGTTA	0.0278
AGAGCGGA	0.0747
AATCACCT	-0.0272
AAGGGTCT	-0.221
CTTGGATA	-0.103
ACCAGTAG	-0.137
ATTGGCGA	-0.0375
GTTTAGGA	0.318
GCACAAAA	0.122
ACCCTCTC	-0.197
CACCATCG	-0.149
GTCCCTAA	-0.117
CTCGCAAA	0.261
GACTGTAC	0.276
AGCAGAGC	-0.151
AGGACGTC	-0.135
ACAATGCC	-0.191
ATAAAGGG	-0.0472
GCCTTGCA	-0.133
CCTCTAAA	-0.185
AGCATCTC	-0.241
CCTGATCA	-0.0937

Sequence	PBM E-score
CGTCATCC	-0.00809
AAAGGATC	-0.127
CCTGGGAA	0.0157
CCGATTCG	0.119
ACGGTCAA	0.28
CATTACGA	0.316
AACGATAA	0.381
ATAACCCG	0.00717
CGCCTGCA	-0.277
ACGGACTG	0.128
CGAACTAA	0.105
AGCCCGCT	-0.199
CGACCATA	0.171
ATACGTCG	0.329
AAAGACAT	-0.197
TACAAATA	0.0915
CGGACCAC	0.0946
CATTTGTA	-0.0189
AAAGTTAC	0.0444
AGGGGCAT	-0.0385
GGTATTAA	-0.061
AGACTGAG	-0.181
GCGATAAC	0.0496
CATGTGAG	-0.165
AAAAACCA	0.092

Sequence	PBM E-score
GGAAATCC	0.0173
GACGACGA	-0.00938
GCGCGACC	0.0445
GTCCATGA	-0.223
CAGAAGGA	-0.326
AACCTAAG	-0.196
CAGTTAAA	0.2
AGCCCTCG	0.183
TTCTTAAA	-0.0313
AACAGATG	-0.115
CCGTATGC	0.356
CACTGTCA	-0.113
CTCGCCTA	0.11
CAGGAAAA	-0.0799
CGCGAGAA	0.0746
CCCGCAAA	0.145
AAACAAAA	0.0602
TACCTAGA	-0.0808
AACTAGGG	-0.0928
ACAAAAAA	0.0149
ATGTCGTC	-0.0259
ACTTCGCC	-0.0263
CGAGTTCA	0.0279
AAGGATAC	-0.027
GGGCCTAA	-0.294

Sequence	PBM E-score
CCTTTACA	-0.0853
CCACGATA	-0.0526
AAACTGAA	-0.0489
ACGACCGG	0.207
AAGGGTTC	-0.162
ACTTATTG	-0.116
ATTATGTG	-0.0485
AACAGCCA	0.0964
CTCTAATA	-0.067
ACCTCGTG	0.2
CTACATCA	-0.309
TAGTATCA	0.0429
GAAAGGAA	-0.0406
AGGTGATG	-0.274
GCACTGTA	0.157
ATTGGAAC	-0.0244
AATGACCT	-0.184
CCATGGAA	-0.229
GTGTGGAA	0.0388
CTCTGTTA	-0.0751
AGTAGAGG	-0.146
TAACTGTA	0.133
